The source gives no read counts; variants with many changes may rest on few reads.
B1: LINE1-mini (parent)
chain: GGCAGAGCUCAACACAGCGUGGCAAAGUGGCUGUGGCUAGACUGCC

Variants of: B1
Assay: self-cleavage, relative activity (ratio to wild type); higher = more cleavage; in vitro, sequencing; the parent is a self-cleaving ribozyme

Variant	self-cleavage
U9C A14G C37U C42A C45A	0
U9C G17U U32A	0.08
U9C A16C G19A G35U G44A	0.01
U9C C23G C37G	0.02
U9C U38G C46A	0
U9C A11C A24U U32G G35A	0.01
U9C C10U A12U C42U	0.01
U9C G22A C23G G33C	0
U9A G35A C42G	0.01
U9A G35A C42U	0.24
U9C G27A G33U G35A U43A	0.01
U9C G19A G33A G40C C45A C46G	0.01
U9C C10G G21U G27A G30C U32A	0.01
U9C C13G A24U G30C C46U	0.02
U9C C18G G22U C23U	0.02
U9C C13A C42U	0.01
U9C G27A C37U	0.02
U9C C13U C15A C31U C42U	0.01
U9C G21C C37A U43C	0.01
U9G A11G C46U	0.02
U9A U34A C37U	0.08
U9C C10A G22U A24C U28C G35C G36A A41C C42A	0.01
U9C G21U G27C	0.02
U9C G30C U32C C46A	0.01

Variant	self-cleavage
U9C A11C A12C C18U G29C	0
U9C C13U G27C C42A	0
U9C A11U C13G G17C U20C C31A C42A	0
U9A U32C G44U	0.15
U9C A12G G19U U32C	0.01
U9C C10A A11C U20G A25U U28C U32C G36A C37G	0
U9C C18G U20A C42A	0
U9C C18A A41U	0
U9A G19U G29A G36C	0
U9C C10A G27U A41U	0.02
U9A G36C G44C	0.01
U9C C45U C46U	0.01
U9A U34A G36A	0.08
U9C C18U U28A A41U	0.06
U9A G21U A26U	0.75
U9C A24C A25G A26G	0.01
U9C A16C G21A G27A G29U U43A	0.01
U9C C10U G21U A25C G29U U38G	0.01
U9C G35A C37A	0.49
U9C G27C G29U G35A C45A	0.01
U9A G19U G44U	0.06
U9A U20C C31A	0.02
U9A U20C C31U	0.1
U9C U34C U43A	0.04

Variant	self-cleavage
U9A G21C G27U	0.22
U9C C37U G44C C46G	0.03
U9A G21C U43G G44C	0.04
U9C C18U U32A	0
U9C C10G C13A G35U	0.01
U9C G36C C42G	0
U9C A12C G27U G29U	0.03
U9C A14C G29A	0.02
U9G A11G C23A A24C C37A G40U	0.04
U9A G21A C31U	0.04
U9A G19U U28G G33A	0.08
U9C A12U G35U U43A C45U	0.01
U9C G17A U38G	0.01
U9C G22C U38A	0
U9A G21U G44U	0.13
U9C G17C C46A	0.01
U9C G19U A24G G30A	0.01
U9C G30U G36U A41G	0.06
U9A G21A C37U	0.15
U9C U28A G29A C37U C42A	0.01
U9C A14C A24U G40U	0.02
U9C A12U A24U G35C U43C	0.02
U9C C37A G40U	0.05
U9A G19C A25C	0.09

Variant	self-cleavage
U9C A24U G44U	0.01
U9C C15U C18G	0.03
U9C G22C C23U C31A U38G	0
U9C G19A G21U C37G	0
U9C C10G U32C U34G A41C	0.03
U9C G17C G36C U38A C46U	0.01
U9C U38G G40C	0.03
U9G A11C U32A	0.01
U9C C10U U34A C37U A41U C42U G44A	0.01
U9C C13A G35U A41U	0.2
U9C C31A C45A	0
U9A G17U G19C	0.19
U9C U20C A25U G40A	0
U9C A16C G17U	0.03
U9C C13G G19C U28C	0.01
U9C C42A G44U	0
U9A G30U A41C U43C	0.02
U9C G27U A39U	0.04
U9A G27U C45G	0.15
U9A G21A G36C C46G	0.07
U9A U34A G36A A39G	0.26
U9C A14U C45G C46U	0.01
U9C A14G C42A C46U	0.01
U9C G27A G30A	0.01

Variant	self-cleavage
U9C C10A G30A C37U	0.03
U9C C13U G35A C46G	0.01
U9C U20C C37A C42U	0
U9C A12U G21U G36C	0.02
U9C G29U U34C C37A	0.04
U9A G21C C37A A39C C45G	0.04
U9C C10U G33U C37A	0.04
U9G A11G C31U	0.01
U9C G19A A24U G35A	0.03
U9C C10U G17A C18G C31G G36U	0.02
U9C C13G C31G C42A	0.01
U9C G19A G29U C37A	0.03
U9C C13G G27U U32C	0.02
U9C A16C U32A	0.01
U9C A16C G27C G35C C37A	0.1
U9A G21U G40C G44A	0.28
U9A G22U G40C	0.07
U9A G22A G29U G30A U43A	0.13
U9A G17U A26G G36U	0.06
U9C A12G G33U	0.02
U9C U43C C45A	0.03
U9A G21U U34C G35A	0.07
U9C C15A U32G	0.03
U9A U20A A39G C42G U43C G44C	0.01

Variant	self-cleavage
U9C G17U A24U	0.03
U9C C15G G22A U28A	0.03
U9C A26C G29C G30C G33C U34C G44U C45A	0
U9C C10G G21C	0.02
U9C C10A C15G C42G	0.03
U9C G19A C45G	0.04
U9C C15A U20G C23U G30U C42A G44C	0.02
U9C C23A A24C C37A	0.02
U9A G29U G35U	0
U9C C10U C13A U34C C42G	0.04
U9C G17C C45G	0.02
U9C A12G A14C G22C C23A G30A C31U	0.01
U9C G21A G27A U32G G36C	0.04
U9C C18A G27U	0.04
U9C A16U U34G C37U	0.02
U9C C18A G30A C46A	0.02
U9A G19C G44A	0.02
U9C C18G G21U	0.02
U9C C15G A24G U28G	0.02
U9C G17A C18G G36U	0.03
U9A U20C C23A G29U U38A C45U C46A	0
U9A G27U G29A A39C	0.01
U9C C13U G30A A39C	0.01
U9C A25U A41G	0.04

Variant	self-cleavage
U9A G19U U28A	0.04
U9G A11G C15U G27U G35C C37G C42U	0.01
U9C A16G G40U	0.01
U9C G27C G29C G33A C46U	0.02
U9C C13G A16G C23A C42A	0
U9A U20C G44A	0.05
U9C C15U A26U	0.02
U9C C15U A24G C46A	0.02
U9C G27A G35U G40A	0.03
U9C U28A C31A G33C	0
U9A U20C U28C G29U	0.06
U9A G19C C37G	0.07
U9A U20A C23A	0.02
U9C A39C A41C	0.08
U9C G30U G35A	0.04
U9C A16G G35U G36A G40U	0.01
U9C U28G G29A	0.1
U9C C10U C23U A25G	0.01
U9C G33U U43A	0.05
U9C A16U C45G	0.02
U9C C37U A39U	0
U9C A41G C45A	0.03
U9C A16G G35A	0.02
